# The list shows a part of the results. Sequences were assembled here from the parent chain. Values near 0.05 are background.
# B1: TEV protease; numbered along this chain (parent)
# chain: MGESLFKGPRDYNPISSSICHLTNESDGHTTSLYGIGFGPFIITNKHLFRRNNGTLVVQSLHGVFKVKDTTTLQQHLVDGRDMIIIRMPKDFPPFPQKLKFREPQREERICLVTTNFQTKSMSSMVSDTSCTFPSGDGIFWKHWIQTKDGQCGSPLVSTRDGFIVGIHSASNFTNTNNYFTSVPKNFMELLTNQEAQQWVSGWRLNADSVLWGGHKVFMVKPEEPFQPVKEATQL
# Variants of: B1
# Test: raw area under fraction-flipped curve 0-4 h after induction (AUC4h, not background-subtracted), DNA-recorder readout of cleavage of the substrate (dimensionless); higher = more cleavage of the substrate by the protease variant
# Conditions: temperature: 34 °C; time window: 0-4 h after rhamnose induction
# Protocol: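 In vivo DNA recorder in E. coli TOP10(DE3) ΔrhaA at 34 °C. Each TEVp single-site mutant (parent TEVp 0) is paired with a single-site variant of the 7-mer TEVs (canonical ENLYFQ|S). The substrate sits between flexible linkers in a Bxb1-sfGFP-TEVs-SsrA fusion, so cleavage stabilises Bxb1 and speeds flipping of a recombination array, read by NGS. The value is the raw area under the fraction-flipped curve over 0-4 h after rhamnose induction (AUC4h), with ≥20 reads per time point. It is not background-subtracted; inactive controls average about 0.047.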
# 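Also: Bxb1 expression induced with 0.2% (w/v) L-rhamnose at OD600 near 0.5, cultures sampled hourly, flipped fraction per protease–substrate barcode pair counted by paired-end Illumina sequencing.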
Variant,area with substrate ANLYFQS,area with substrate CNLYFQS,area with substrate FNLYFQS,area with substrate HNLYFQS,area with substrate INLYFQS,area with substrate KNLYFQS,area with substrate NNLYFQS,area with substrate PNLYFQS,area with substrate RNLYFQS,area with substrate SNLYFQS,area with substrate TNLYFQS,area with substrate VNLYFQS,area with substrate WNLYFQS,area with substrate DNLYFQS,area with substrate LNLYFQS,area with substrate QNLYFQS,area with substrate YNLYFQS,area with substrate GNLYFQS,area with substrate MNLYFQS
MGESLFKGPRDYNPISSSICHLTNESDGHTTSLYGIGFGPFIITNKHMFRRNNGTLVVQSLHGVFKVKDTTTLQQHLVDGRDMIIIRMPKDFPPFPQKLKFREPQREERICLVTTNFQTKSMSSMVSDTSCTFPSGDGIFWKHWIQTKDGQCGSPLVSTRDGFIVGIHSASNFTNTNNYFTSVPKNFMELLTNQEAQQWVSGWRLNADSVLWGGHKVFMVKPEEPFQPVKEATQL [L48M],0.0379,0.0648,0.0668,0.0606,0.0657,0.0546,0.0543,0.0613,0.0582,0.0674,0.0647,0.0631,0.0603,,,,,,
MGESLFKGPRDYNPISSSICHLTNESDGHTTSLYGIGFGPFIITNKHRFRRNNGTLVVQSLHGVFKVKDTTTLQQHLVDGRDMIIIRMPKDFPPFPQKLKFREPQREERICLVTTNFQTKSMSSMVSDTSCTFPSGDGIFWKHWIQTKDGQCGSPLVSTRDGFIVGIHSASNFTNTNNYFTSVPKNFMELLTNQEAQQWVSGWRLNADSVLWGGHKVFMVKPEEPFQPVKEATQL [L48R],0.0753,,0.062,0.0571,0.0515,0.0685,0.0648,0.0589,,0.0547,0.0571,,0.0567,0.0554,0.0549,0.0751,0.0564,,
MGESLFKGPRDYNPISSSICHLTNESDGHTTSLYGIGFGPFIITNKHSFRRNNGTLVVQSLHGVFKVKDTTTLQQHLVDGRDMIIIRMPKDFPPFPQKLKFREPQREERICLVTTNFQTKSMSSMVSDTSCTFPSGDGIFWKHWIQTKDGQCGSPLVSTRDGFIVGIHSASNFTNTNNYFTSVPKNFMELLTNQEAQQWVSGWRLNADSVLWGGHKVFMVKPEEPFQPVKEATQL [L48S],0.0651,0.0628,,0.0538,0.0534,0.0653,,0.0663,,,0.0643,,0.0582,0.0668,,0.0569,,0.063,0.0689
MGESLFKGPRDYNPISSSICHLTNESDGHTTSLYGIGFGPFIITNKHVFRRNNGTLVVQSLHGVFKVKDTTTLQQHLVDGRDMIIIRMPKDFPPFPQKLKFREPQREERICLVTTNFQTKSMSSMVSDTSCTFPSGDGIFWKHWIQTKDGQCGSPLVSTRDGFIVGIHSASNFTNTNNYFTSVPKNFMELLTNQEAQQWVSGWRLNADSVLWGGHKVFMVKPEEPFQPVKEATQL [L48V],0.0547,0.062,0.0554,0.0593,0.0369,0.0655,0.0667,0.0611,,0.0512,0.0781,0.0713,0.056,0.0614,0.0542,0.0546,0.0778,0.0529,0.0655
MGESLFKGPRDYNPISSSICHLTNESDGHTTSLYGIGFGPFIITNKHWFRRNNGTLVVQSLHGVFKVKDTTTLQQHLVDGRDMIIIRMPKDFPPFPQKLKFREPQREERICLVTTNFQTKSMSSMVSDTSCTFPSGDGIFWKHWIQTKDGQCGSPLVSTRDGFIVGIHSASNFTNTNNYFTSVPKNFMELLTNQEAQQWVSGWRLNADSVLWGGHKVFMVKPEEPFQPVKEATQL [L48W],0.0619,0.0584,0.092,0.0659,,0.0704,,0.0605,,,0.0729,0.0564,0.0565,0.0675,0.0598,,0.06,0.058,0.0568
MGESLFKGPRDYNPISSSICHLTNESDGHTTSLYGIGFGPFIITNKHLFRRWNGTLVVQSLHGVFKVKDTTTLQQHLVDGRDMIIIRMPKDFPPFPQKLKFREPQREERICLVTTNFQTKSMSSMVSDTSCTFPSGDGIFWKHWIQTKDGQCGSPLVSTRDGFIVGIHSASNFTNTNNYFTSVPKNFMELLTNQEAQQWVSGWRLNADSVLWGGHKVFMVKPEEPFQPVKEATQL [N52W],0.0543,0.0622,0.064,0.0485,0.0605,0.063,0.0684,0.0667,,0.0581,0.0597,0.0641,0.0574,0.062,0.0606,0.062,0.059,,0.065
MGESLFKGPRDYNPISSSICHLTNESDGHTTSLYGIGFGPFIITNKHLFRRNNITLVVQSLHGVFKVKDTTTLQQHLVDGRDMIIIRMPKDFPPFPQKLKFREPQREERICLVTTNFQTKSMSSMVSDTSCTFPSGDGIFWKHWIQTKDGQCGSPLVSTRDGFIVGIHSASNFTNTNNYFTSVPKNFMELLTNQEAQQWVSGWRLNADSVLWGGHKVFMVKPEEPFQPVKEATQL [G54I],0.0571,0.0619,,0.049,0.0548,0.0572,,,,0.0538,0.0583,,0.0512,0.0617,0.052,,0.0523,0.0614,
MGESLFKGPRDYNPISSSICHLTNESDGHTTSLYGIGFGPFIITNKHLFRRNNGTPVVQSLHGVFKVKDTTTLQQHLVDGRDMIIIRMPKDFPPFPQKLKFREPQREERICLVTTNFQTKSMSSMVSDTSCTFPSGDGIFWKHWIQTKDGQCGSPLVSTRDGFIVGIHSASNFTNTNNYFTSVPKNFMELLTNQEAQQWVSGWRLNADSVLWGGHKVFMVKPEEPFQPVKEATQL [L56P],0.0472,0.0443,,0.0377,,0.0302,,0.0471,,0.0452,0.0389,0.0427,0.0606,,0.0545,,,0.0451,0.0514
MGESLFKGPRDYNPISSSICHLTNESDGHTTSLYGIGFGPFIITNKHLFRRNNGTSVVQSLHGVFKVKDTTTLQQHLVDGRDMIIIRMPKDFPPFPQKLKFREPQREERICLVTTNFQTKSMSSMVSDTSCTFPSGDGIFWKHWIQTKDGQCGSPLVSTRDGFIVGIHSASNFTNTNNYFTSVPKNFMELLTNQEAQQWVSGWRLNADSVLWGGHKVFMVKPEEPFQPVKEATQL [L56S],0.0455,0.0394,0.0381,0.0483,0.0598,0.033,0.0307,0.062,0.0257,,0.0463,,0.0539,,0.0556,,0.0368,,0.0391

# — the supplement of paper PMC12217912
